The values that follow come from PubChem BioAssay AID488969 (Vanderbilt High Throughput Screening Facility, 2010).

Whole data set: some 110,000 compounds, median “z-score” near -0.1, cut for the highest 2% near 2. The list shows a part of the results. Calls of active or inactive are those of the source.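 The calls were made as follows: active = z-score in the third read window above 3 or below -3; inactive = the rest.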

The test has as its target Metabotropic glutamate receptor 8 (Rattus norvegicus) (UniProt P70579). Put plainly: rat mGluR8 modulators via GIRK flux, primary screen, cell-based, thallium flux, HTS (AID 488969). Conditions: HEK293 rat mGluR8, GIRK (G protein-gated inwardly rectifying potassium channel) thallium flux, FluoZin2; at 10 µM; stronger effect = higher value; submaximal glutamate (EC20) added with thallium.
Chain of UniProt P70579 (P70579 whole entry, looked up): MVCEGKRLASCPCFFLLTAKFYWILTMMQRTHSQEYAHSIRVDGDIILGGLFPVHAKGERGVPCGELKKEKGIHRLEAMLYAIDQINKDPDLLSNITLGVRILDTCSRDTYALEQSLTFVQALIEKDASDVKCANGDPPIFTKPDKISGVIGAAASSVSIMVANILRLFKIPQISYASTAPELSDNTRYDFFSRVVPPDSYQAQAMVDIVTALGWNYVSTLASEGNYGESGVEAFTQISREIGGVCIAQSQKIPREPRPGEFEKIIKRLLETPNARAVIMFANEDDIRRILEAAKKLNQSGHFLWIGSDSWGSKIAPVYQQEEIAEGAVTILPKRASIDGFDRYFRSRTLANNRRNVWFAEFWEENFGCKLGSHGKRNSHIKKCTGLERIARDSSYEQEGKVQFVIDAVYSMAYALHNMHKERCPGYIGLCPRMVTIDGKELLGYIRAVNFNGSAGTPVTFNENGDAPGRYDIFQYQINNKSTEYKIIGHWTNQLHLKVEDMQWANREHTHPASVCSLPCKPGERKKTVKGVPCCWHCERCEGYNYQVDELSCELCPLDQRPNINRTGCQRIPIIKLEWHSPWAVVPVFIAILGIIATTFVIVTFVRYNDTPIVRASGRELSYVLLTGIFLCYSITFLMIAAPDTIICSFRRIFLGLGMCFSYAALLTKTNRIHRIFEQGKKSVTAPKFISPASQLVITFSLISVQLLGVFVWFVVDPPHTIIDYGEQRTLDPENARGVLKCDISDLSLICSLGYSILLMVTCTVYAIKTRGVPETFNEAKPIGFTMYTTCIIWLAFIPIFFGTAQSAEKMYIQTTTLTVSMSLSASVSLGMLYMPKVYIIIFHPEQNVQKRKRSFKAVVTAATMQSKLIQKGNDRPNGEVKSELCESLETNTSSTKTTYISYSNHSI
`O=C(NC1CCCC1)C(c1ccsc1)N(CCc1ccccc1)C(=O)Cc1cccs1` (centres undefined) registered a z-score of -0.222.

Compound `CCC(=O)NCCc1nc2ccccc2n1Cc1ccccc1` displayed a z-score of -0.29.

For `Cc1ccc(C(=O)Nc2ccc(O)cc2C(=O)O)cc1`, the z-score was -0.517. The compound `CCc1ccccc1NC(=O)CSc1nc2c(c(-c3ccco3)c1C#N)CCCC2` registered a z-score of 0.16. `O=[N+]([O-])c1ccc(O)c(C=Nc2ccc3c(c2)OCCO3)c1`: the z-score amounted to 0.193. As to `O=C(O)C1C2C=CC(C2)C1C(=O)Nc1nccs1` (centres undefined), the z-score is -0.306.

`C=CCOn1c(=O)c(-c2ccc(OC)cc2)[n+]([O-])c2ccccc21` displayed a z-score of -0.0769. On to `Cc1cccc(N2C(=O)CS/C2=N\NC(=O)c2ccc(Cl)cc2)c1C`, for which the z-score was active: 3.96. To `CCn1c(SCC(=O)c2ccc(NC(C)=O)c(OC)c2)nnc1-c1ccc(NS(C)(=O)=O)cc1` belongs -0.0548; to `CCOc1ccc(-c2ccc(SCC(=O)N3CCN(c4ccccc4)CC3)nn2)cc1`, -0.0827. For `CC(=O)N/C(=C\c1ccccc1)C(=O)NCC(=O)O`, the z-score was -0.256.

`Cc1ccc(OCCN2C(=O)S/C(=C\c3ccc(C)o3)C2=O)cc1` came in with a z-score of -0.112. To `COc1ccc(NC(=O)C(CC(C)C)NS(=O)(=O)c2ccc3c(c2)CCN3C(C)=O)cc1OC` (centres undefined) belongs 0.312; to `Cc1ccc(CC2CC(=O)N(c3ccc4c(c3)OCCO4)C2=O)cc1` (centres undefined), 0.11. Under `CCn1nnnc1SCC(=O)Nc1cccc(NC(C)=O)c1` stands 0.0385. Take `Cc1cc(Cl)ccc1NC(=S)NCc1ccco1`: the z-score is -0.137. For `CSCCC(NC(=O)c1ccco1)C(=O)NCc1ccc(F)cc1` (centres undefined), the z-score was -0.632. In turn, `CC(=O)Nc1ccc(Sc2ncccc2C(=O)Nc2cc(Cl)cc(Cl)c2)cn1` gave a z-score of 0.0331.

For `COc1ccc(C(=O)NNC(=O)CN2CCC(n3nnc4cc(C(F)(F)F)ccc43)CC2)cc1`, the z-score was determined as 0.177.

Compound `CCN(CC)CCN1C(=O)C(=O)/C(=C(/O)c2ccccc2)C1c1ccccc1F` (centres undefined) had a z-score of 1.55. `COc1ccccc1OCC(=O)NCc1cccs1` came in with a z-score of -0.509. Compound `CCOC(=O)c1c(N)nn(C(=O)C(C)C)c1-c1ccc(OC)cc1` displayed a z-score of -0.515.

Regarding `COc1cccc(NC(=O)CNC(=O)c2ccccc2)c1`, the z-score is -0.0963. Consider `CCCCOc1ccc(-c2cn3ccccc3n2)cc1[N+](=O)[O-]`, for which the z-score is -0.66. In turn, `CC1CCc2c(sc(Nc3nc4c(F)cccc4s3)c2C(N)=O)C1` (centres undefined) showed a z-score of 1.42.

`CCn1c(N2CCN(C(=S)NCC(C)C)CC2)nc2ccccc21`: the z-score was -0.148. To `Cc1ccc(-c2nnc(SCC(=O)OC(C)C)n2N)cc1` belongs -0.186.

Regarding `CCn1ncc(C2=NOC(C(=O)Nc3c(C)n(C)n(-c4ccccc4)c3=O)C2)c1C` (centres undefined), the z-score is -0.0873.

Take `O=C(CN1CCC(NC(=O)c2ccccc2F)CC1)NCc1ccc(F)cc1`: the z-score came out at 0.34. To `O=C1CCCC2(O)C1C(c1cccc(Br)c1)NC(=O)N2Cc1ccccc1` (centres undefined) belongs -0.114. With `CN(CC(=O)NCc1cccs1)S(=O)(=O)c1cccc2cccnc12`, the z-score was -0.186. `CCOC(=O)c1sc(NC(=S)NC(=O)C2CCCC2)cc1C`: the z-score was -0.307. For `Clc1ccc(OCc2nc(-c3ccccn3)no2)c(Br)c1`, the z-score is 0.419. Consider `COC(=O)c1ccc(N=NNc2ccccc2)cc1`, for which the z-score is -0.163. In turn, `Nc1c(C(=O)NCc2ccco2)sc2nc3c(cc12)C(=O)CCC3` had a z-score of -0.541. To `CC(C)NC(=O)c1ccccc1NC(=O)Cc1ccc(Cl)cc1` belongs 0.535. The compound `C=CCn1c(SCc2ccc(Cl)c(Cl)c2)nnc1C(CO)NC(=O)c1ccc(OC)cc1` (centres undefined) yielded a z-score of 0.0847. Under `COc1ccc(S(=O)(=O)N2CCN(c3cccc(C)c3C)CC2)cc1` stands -0.658; under `Cc1onc(-c2ccccc2)c1C(=O)Nc1nnc(-c2ccncc2)s1`, -0.00751; under `Cc1cc(C(C)(C)C)cc(C)c1N`, -0.199.

`Cc1cc(C)c(S(=O)(=O)N2CCN=C2c2ccccc2)c(C)c1` yielded a z-score of -0.118. `Cn1cc(C(=O)c2ccc(Cl)cc2Cl)cc1C(=O)N/N=C(\N)COc1cccc(C(F)(F)F)c1` had a z-score of -0.423.

Compound `NC(=O)c1ccccc1N/C=C/C(=O)c1ccco1` displayed a z-score of -0.526.

`COC(=O)c1cccc(CSc2nc3ccccc3[nH]2)c1` displayed a z-score of 0.475. As to `CCn1c(=N)c(C(N)=O)cc2c(=O)n3cccc(C)c3nc21`, the z-score is -1.13. `CC(C)NC(=O)C1(c2ccccc2)CCOCC1`: the z-score is -0.0416. `Cc1ccc(-c2ccc(/C=N\NC(=O)C3C(=O)NCC3c3ccccc3)o2)cc1Cl` (centres undefined): the z-score was -0.12. `c1ccc(COc2ccc(OCCCn3cncn3)cc2)cc1` displayed a z-score of -0.0312. The compound `CCOC(=O)C1(C)NC(c2ccco2)C2C(=O)N(c3ccc(C)cc3)C(=O)C21` (centres undefined) displayed a z-score of 0.153. `CCCN=C(N)/C(C(=O)OCC)=C(\O)c1ccc(OC)cc1` displayed a z-score of -0.155. In turn, `COc1ccc(-c2noc(-c3ccc(Br)o3)n2)cc1OC` gave a z-score of 0.677.

`COc1cc(/C=C(/C#N)C(=O)NCCc2c[nH]c3ccccc23)ccc1OCc1ccccc1F` showed a z-score of -0.542.

Regarding `O=C(NN=C1c2ccccc2-c2ccccc21)c1ccccc1Br`, the z-score was active: 5.82.

`Cc1nn(-c2c(Cl)cc(Cl)cc2Cl)c(=O)c2ccccc12` came in with a z-score of 0.0211.

As to `CCOC(=O)/C(=N/Nc1ccccc1)N1CCCc2ccccc21`, the z-score was -0.0248. Consider `CCCNC(=O)c1cc2c(C(F)(F)F)nn(C)c2s1`, for which the z-score is -0.0653.

Turning to `Cc1cc(C)n(-c2nc(Nc3ccccc3C(F)(F)F)nc(-n3nc(C)cc3C)n2)n1`, the z-score worked out at 0.767. `CCOC(=O)N1CCC(NC(=O)c2cc3c(C)nc4ccccc4c3o2)CC1`: the z-score is -0.445. With `CN1CCN(C(=O)c2cc3nc(-c4ccc(Cl)cc4)cc(C(F)(F)F)n3n2)CC1`, the z-score was -0.381. `CN(C)S(=O)(=O)c1cccc(NC(=O)CN2C(=O)C3C4C=CC(C4)C3C2=O)c1` (centres undefined) displayed a z-score of 0.514.

Compound `Cc1cc(C)cc(N2CCCC2=O)c1` registered a z-score of -0.193. Compound `COc1ccc(OCc2ccc(C(=O)N3CCOCC3)cc2)cc1` returned a z-score of 0.414.

With `O=C(CSc1nc2c(sc3ccccc32)c(=O)n1Cc1ccccc1)NCC1CCCO1` (centres undefined), the z-score was determined as 0.199. Compound `Cc1ccc(Cl)cc1NS(=O)(=O)c1c(C)[nH]c(=O)[nH]c1=O` displayed a z-score of -1.66.

For `CCN(c1ccccc1)S(=O)(=O)c1ccc(Cl)c(NC(=O)COC(=O)c2cccc(OC)c2O)c1`, the z-score was -0.188. `CN(C)S(=O)(=O)c1ccc(C(=O)OCC(=O)c2ccc(OC(F)F)cc2OC(F)F)cc1` registered a z-score of 0.933. Turning to `COc1ccc(-c2nc3n(c(=O)c2C#N)CCCS3)cc1`, the z-score is -0.372. In turn, `COc1cccc(-c2csc(NC(=O)Oc3ccccc3)n2)c1` registered a z-score of -0.144. Compound `Cc1ccc(C)c(NC(=O)Cn2nc(-c3ccccc3)nc2-c2ccccc2)c1` displayed a z-score of -0.13.
